At least one read-out could not be matched to a standard name with certainty.
Test system: pig coronary arteries
Test: Antagonism of substance-P induced relaxation of the pig coronary arteries
Assay type: cell-based
Conditions: concentration test compound 3 × 10^−8; inhibition of the response to 10^−9 M substance P; 30 minutes incubation

**Q.** For COc1ccccc1C1(O)CCN([C@@H]2CCN(C(=O)c3cc(C)cc(C)c3)[C@@H](Cc3ccccc3)C2)CC1 (racemic) [Compound 17, (±)-trans-1-(3,5-dimethylbenzoyl)-4-[4-hydroxy-4-(2-methoxyphenyl)-1-piperidinyl]-2-(phenyl-methyl)piperidine], which “% inhibition” value is on record?
**A.** 68.3%

**Q.** For Cc1cc(C)cc(C(=O)N2CC[C@H](N3CCC(NC(=O)c4ccccc4N)CC3)C[C@@H]2Cc2ccccc2)c1 (racemic) [Compound 24, (±)-cis-2-amino-N-[1-[1-(3,5-dimethylbenzoyl)-2-(phenylmethyl)-4-piperidinyl]-4-piperidinyl]benzamide], which “% inhibition” value is on record?
**A.** 13.1%

**Q.** Which “% inhibition” value does the source give for Cc1cc(C)cc(C(=O)N2CC[C@@H](N3CCC(NCCc4ccccc4)CC3)C[C@@H]2Cc2ccccc2)c1 (racemic) [Compound 27, (±)-trans-1-(3,5-dimethylbenzoyl)-4-[4-[(2-phenylethyl)amino]-1-piperidinyl]-2-(phenylmethyl)piperidine] here?
**A.** 12.9%

**Q.** How did the “% inhibition” value turn out when Cc1cc(C)cc(C(=O)N2CC[C@@H](N3CCC(OC(=O)c4cc(Cl)cc(Cl)c4)CC3)C[C@@H]2Cc2ccccc2)c1 (racemic) [Compound 33, (±)-trans-1-[1-(3,5-dimethylbenzoyl)-2-(phenylmethyl)-4-piperidinyl]-4-piperidinyl 3,5-dichloro-benzoate] was run?
**A.** 51.4%

**Q.** How did the “% inhibition” value turn out when CCC(=O)n1c(=O)n(C2CCN([C@H]3CCN(C(=O)c4cc(C)cc(C)c4)[C@@H](Cc4ccccc4)C3)CC2)c2ccccc21 (racemic) [Compound 34, (±)-cis-1-[1-[1-(3,5-di-methylbenzoyl)-2-(phenyl-methyl)-4-piperidinyl]-4-piperidinyl]-1,3-dihydro-3-(1-oxopropyl)-2H-benzimidazol-2-one] was run?
**A.** 47.7%

Same assay, conditions: concentration test compound 3 × 10^−9; inhibition of the response to 10^−9 M substance P; 30 minutes incubation

**Q.** For O=C(c1cc(C(F)(F)F)cc(C(F)(F)F)c1)N1CC[C@@H](N2CCC(n3c(=O)[nH]c4ccccc43)CC2)C[C@@H]1Cc1ccccc1 (racemic) [Compound 43, (±)-trans-1-[3,5-bis(trifluoromethyl)benzoyl]-4-[4-(2,3-dihydro-2-oxo-1H-benzimidazol-1-yl)-1-piperidinyl]-2-(phenylmethyl)piperidine], which “% inhibition” value is on record?
**A.** 93.7%

**Q.** O=C(c1cc(C(F)(F)F)cc(C(F)(F)F)c1)N1CC[C@H](N2CCC(Nc3nccn3Cc3ccc(F)cc3)CC2)C[C@@H]1Cc1ccccc1 (racemic) [Compound 72, (±)-cis-1-[3,5-bis(trifluoromethyl)benzoyl]-4-[4-[[1-[(4-fluorophenyl)methyl]-1H-imidazol-2-yl]amino]-1-piperidinyl]-2-(phenylmethyl)-piperidine] was tested. Which “% inhibition” value did it give?
**A.** 40.6%

**Q.** Which “% inhibition” value does the source give for O=C(c1cc(C(F)(F)F)cc(C(F)(F)F)c1)N1CC[C@@H](N2CCC(Nc3nccn3Cc3ccc(F)cc3)CC2)C[C@@H]1Cc1ccccc1 (racemic) [Compound 73, (±)-trans-1-[3,5-bis(trifluoromethyl)-benzoyl]-4-[4-[[1-[(4-fluorophenyl)methyl]-1H-imidazol-2-yl]amino]-1-piperidinyl]-2-(phenylmethyl)piperidine] here?
**A.** 51.3%

**Q.** For O=C(c1cc(C(F)(F)F)cc(C(F)(F)F)c1)N1CC[C@H](N2CCC(O)(Cc3nc4ccccc4n3Cc3ccc(F)cc3)CC2)C[C@@H]1Cc1ccccc1 (racemic) [Compound 74, (±)-cis-1-[3,5-bis(trifluoromethyl)benzoyl]-4-[4-[[1-[(4-fluorophenyl)methyl]-1H-benzimidazol-2-yl]methyl]-4-hydroxy-1-piperidinyl]-2-(phenylmethyl)piperidine], which “% inhibition” value is on record?
**A.** 22.6%

**Q.** O=C(c1cc(C(F)(F)F)cc(C(F)(F)F)c1)N1CC[C@@H](N2CCC(O)(Cc3nc4ccccc4n3Cc3ccc(F)cc3)CC2)C[C@@H]1Cc1ccccc1 (racemic) [Compound 75, (±)-trans-1-[3,5-bis(trifluoromethyl)benzoyl]-4-[4-[[1-[(4-fluorophenyl)-methyl]-1H-benzimidazol-2-yl]methyl]-4-hydroxy-1-piperidinyl]-2-(phenylmethyl)-piperidine] was tested. Which “% inhibition” value did it give?
**A.** 68.4%

**Q.** With O=C(c1cc(C(F)(F)F)cc(C(F)(F)F)c1)N1CC[C@H](N2CCC(C(=O)N3CCCC3)(c3ccccc3)CC2)C[C@@H]1Cc1ccc(C(F)(F)F)cc1 (racemic) [Compound 111, (±)-cis-1-[3,5-bis(trifluoromethyl)-benzoyl]-4-[4-phenyl-4-(1-pyrrolidinylcarbonyl)-1-piperidinyl]-2-[[4-(trifluoromethyl)-phenyl]methyl]piperidine] as the molecule, how does the “% inhibition” value read?
**A.** 85.7%

**Q.** How did the “% inhibition” value turn out when O=C(c1cc(C(F)(F)F)cc(C(F)(F)F)c1)N1CC[C@@H](N2CCC(C(=O)N3CCCC3)(c3ccccc3)CC2)C[C@@H]1Cc1ccc(C(F)(F)F)cc1 (racemic) [Compound 112, (±)-trans-1-[3,5-bis(trifluoromethyl)benzoyl]-4-[4-phenyl-4-(1-pyrrolidinylcarbonyl)-1-piperidinyl]-2-[[4-(trifluoromethyl)phenyl]methyl]-piperidine] was run?
**A.** 96.8%

**Q.** For CC(=O)NC1(c2ccccc2)CCN([C@@H]2CCN(C(=O)c3sc(C)nc3C)[C@@H](Cc3ccccc3)C2)CC1 (racemic) [Compound 121, (±)-trans-N-[1-[1-[(2,4-dimethyl-5-thiazolyl)carbonyl]-2-(phenylmethyl)-4-piperidinyl]-4-phenyl-4-piperidinyl]acetamide], which “% inhibition” value is on record?
**A.** 6.3%

From patent publication US6346540B1, “1-(1,2-disubstituted pipeidinyl)-4-substituted piperidine derivatives” (Janssen Pharmaceutica N.V., priority 1995, dated 2002)
